In the supplement of paper PMC12217912:
This is one part of the list. The full chains were built here from the parent and the listed change. Inactive controls read about 0.05.

B1: TEV protease; numbered along this chain (parent)
chain: MGESLFKGPRDYNPISSSICHLTNESDGHTTSLYGIGFGPFIITNKHLFRRNNGTLVVQSLHGVFKVKDTTTLQQHLVDGRDMIIIRMPKDFPPFPQKLKFREPQREERICLVTTNFQTKSMSSMVSDTSCTFPSGDGIFWKHWIQTKDGQCGSPLVSTRDGFIVGIHSASNFTNTNNYFTSVPKNFMELLTNQEAQQWVSGWRLNADSVLWGGHKVFMVKPEEPFQPVKEATQL

Variants of: B1
Test: raw area under fraction-flipped curve 0-4 h after induction (AUC4h, not background-subtracted), DNA-recorder readout of cleavage of the substrate (dimensionless); higher = more cleavage of the substrate by the protease variant
Conditions: temperature: 34 °C; time window: 0-4 h after rhamnose induction
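Also: Bxb1 expression induced with 0.2% (w/v) L-rhamnose at OD600 near 0.5, cultures sampled hourly, flipped fraction per protease–substrate barcode pair counted by paired-end Illumina sequencing.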

| Variant | area with substrate ENAYFQS | area with substrate ENCYFQS | area with substrate ENDYFQS | area with substrate ENFYFQS | area with substrate ENGYFQS | area with substrate ENHYFQS | area with substrate ENIYFQS | area with substrate ENMYFQS | area with substrate ENNYFQS | area with substrate ENPYFQS | area with substrate ENQYFQS | area with substrate ENRYFQS | area with substrate ENSYFQS | area with substrate ENTYFQS | area with substrate ENVYFQS | area with substrate ENYYFQS | area with substrate ENEYFQS | area with substrate ENWYFQS | area with substrate ENKYFQS |
| --- | --- | --- | --- | --- | --- | --- | --- | --- | --- | --- | --- | --- | --- | --- | --- | --- | --- | --- | --- |
| MGESLFKGPRDYNPISSSICHLTNESDGHTTSLYGIGFGPFIITNKHLFRRNNGTLVVQSLHGVFKVKDTTTLQQHLVDGRDMIIIRMPKDFPPFPQKLKFREPQREERICLVTTNFQTKSMSSMVSDTSCTFPSGDGIFWKHWIQTKDGQCGSPLVSTRDGFIVGIHSASNFTNTNNYFTSVPKNFMELLTNQEAQQWVSGWRLNADSVLWGGHKVFMVKPEEVFQPVKEATQL [P225V] | 0.057 | 0.0625 | 0.0635 | 0.0503 | 0.059 | 0.0547 | 0.102 | 0.0821 | 0.0568 | 0.0698 | 0.0614 | 0.0423 | 0.0588 | 0.148 | 0.0715 | 0.0619 |  |  |  |
| MGESLFKGPRDYNPISSSICHLTNESDGHTTSLYGIGFGPFIITNKHLFRRNNGTLVVQSLHGVFKVKDTTTLQQHLVDGRDMIIIRMPKDFPPFPQKLKFREPQREERICLVTTNFQTKSMSSMVSDTSCTFPSGDGIFWKHWIQTKDGQCGSPLVSTRDGFIVGIHSASNFTNTNNYFTSVPKNFMELLTNQEAQQWVSGWRLNADSVLWGGHKVFMVKPEEPIQPVKEATQL [F226I] | 0.0533 | 0.0786 | 0.0524 | 0.0577 | 0.058 | 0.0467 |  | 0.0593 |  | 0.0485 | 0.0626 |  | 0.0593 | 0.0688 | 0.0734 |  | 0.0619 | 0.0614 |  |
| MGESLFKGPRDYNPISSSICHLTNESDGHTTSLYGIGFGPFIITNKHLFRRNNGTLVVQSLHGVFKVKDTTTLQQHLVDGRDMIIIRMPKDFPPFPQKLKFREPQREERICLVTTNFQTKSMSSMVSDTSCTFPSGDGIFWKHWIQTKDGQCGSPLVSTRDGFIVGIHSASNFTNTNNYFTSVPKNFMELLTNQEAQQWVSGWRLNADSVLWGGHKVFMVKPEEPFSPVKEATQL [Q227S] | 0.0595 | 0.0532 | 0.0662 |  |  | 0.0542 |  |  |  | 0.0572 | 0.0642 | 0.0567 | 0.052 | 0.0658 | 0.0778 | 0.0664 | 0.0563 | 0.058 |  |
| MGESLFKGPRDYNPISSSICHLTNESDGHTTSLYGIGFGPFIITNKHLFRRNNGTLVVQSLHGVFKVKDTTTLQQHLVDGRDMIIIRMPKDFPPFPQKLKFREPQREERICLVTTNFQTKSMSSMVSDTSCTFPSGDGIFWKHWIQTKDGQCGSPLVSTRDGFIVGIHSASNFTNTNNYFTSVPKNFMELLTNQEAQQWVSGWRLNADSVLWGGHKVFMVKPEEPFQHVKEATQL [P228H] | 0.0606 | 0.0685 | 0.0582 |  | 0.0582 |  |  |  | 0.0629 |  | 0.0557 | 0.0545 | 0.0601 | 0.0608 |  |  | 0.0687 | 0.0997 | 0.0376 |
| MGESLFKGPRDYNPISSSICHLTNESDGHTTSLYGIGFGPFIITNKHLFRRNNGTLVVQSLHGVFKVKDTTTLQQHLVDGRDMIIIRMPKDFPPFPQKLKFREPQREERICLVTTNFQTKSMSSMVSDTSCTFPSGDGIFWKHWIQTKDGQCGSPLVSTRDGFIVGIHSASNFTNTNNYFTSVPKNFMELLTNQEAQQWVSGWRLNADSVLWGGHKVFMVKPEEPFQQVKEATQL [P228Q] | 0.0433 | 0.0687 | 0.0614 | 0.0533 |  | 0.0487 | 0.163 | 0.0796 | 0.0608 | 0.0572 | 0.0612 | 0.0565 | 0.0896 | 0.0789 | 0.0689 | 0.066 | 0.0614 | 0.0526 | 0.068 |
| MGESLFKGPRDYNPISSSICHLTNESDGHTTSLYGIGFGPFIITNKHLFRRNNGTLVVQSLHGVFKVKDTTTLQQHLVDGRDMIIIRMPKDFPPFPQKLKFREPQREERICLVTTNFQTKSMSSMVSDTSCTFPSGDGIFWKHWIQTKDGQCGSPLVSTRDGFIVGIHSASNFTNTNNYFTSVPKNFMELLTNQEAQQWVSGWRLNADSVLWGGHKVFMVKPEEPFQVVKEATQL [P228V] | 0.0584 | 0.0761 |  |  |  |  | 0.129 |  | 0.0798 | 0.0474 | 0.0721 |  | 0.0595 | 0.0647 | 0.0773 |  | 0.0568 |  | 0.0653 |
| MGESLFKGPRDYNPISSSICHLTNESDGHTTSLYGIGFGPFIITNKHLFRRNNGTLVVQSLHGVFKVKDTTTLQQHLVDGRDMIIIRMPKDFPPFPQKLKFREPQREERICLVTTNFQTKSMSSMVSDTSCTFPSGDGIFWKHWIQTKDGQCGSPLVSTRDGFIVGIHSASNFTNTNNYFTSVPKNFMELLTNQEAQQWVSGWRLNADSVLWGGHKVFMVKPEEPFQPGKEATQL [V229G] | 0.0692 | 0.0948 | 0.0596 | 0.0618 | 0.0702 |  |  | 0.1 |  |  | 0.0518 | 0.0577 | 0.0609 | 0.0697 | 0.0657 |  | 0.0745 |  | 0.0611 |
| MGESLFKGPRDYNPISSSICHLTNESDGHTTSLYGIGFGPFIITNKHLFRRNNGTLVVQSLHGVFKVKDTTTLQQHLVDGRDMIIIRMPKDFPPFPQKLKFREPQREERICLVTTNFQTKSMSSMVSDTSCTFPSGDGIFWKHWIQTKDGQCGSPLVSTRDGFIVGIHSASNFTNTNNYFTSVPKNFMELLTNQEAQQWVSGWRLNADSVLWGGHKVFMVKPEEPFQPMKEATQL [V229M] | 0.087 |  | 0.0642 | 0.0638 |  |  |  | 0.08 | 0.0538 |  | 0.0552 |  | 0.0599 | 0.0384 | 0.0854 |  | 0.0623 | 0.0314 |  |
